Source: publication PMC9236906
These are yes or no findings as the source states them, for the method shown. In cells and extracts the contact can be indirect. Some binding calls cover weakened binding; strength is not graded here.

Sequences of proteins named here, by UniProt entry; tags and fusion partners are left off. A change or cut given only in a name is not applied to a line headed by its entry.
UniProt P40337: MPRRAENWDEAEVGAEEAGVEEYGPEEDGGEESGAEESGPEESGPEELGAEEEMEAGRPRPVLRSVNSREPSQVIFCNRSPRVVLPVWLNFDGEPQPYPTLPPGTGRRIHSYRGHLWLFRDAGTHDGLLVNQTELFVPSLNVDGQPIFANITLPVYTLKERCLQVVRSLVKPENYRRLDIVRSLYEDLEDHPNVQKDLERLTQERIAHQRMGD

Tests used:
[1] = target: HA-VHL wild-type (pVHL), stably expressed in 786-O cells (human) (UniProt P40337); test: co-IP; anti-HA immunoprecipitation from lysates of 786-O HA-VHL WT cells in which EGLN3 was downregulated with lentiviral shRNA
[2] = target: HA-VHL wild-type (pVHL), stably expressed in 786-O cells (human) (UniProt P40337); test: proximity ligation; in situ PLA with TFAM and VHL antibodies in fixed, permeabilised 786-O cells (VHL WT against pRC3), MitoTracker Red staining, confocal microscopy
[3] = target: HA-VHL wild-type (pVHL), stably expressed in 786-O cells (human) (UniProt P40337); test: co-IP; anti-HA immunoprecipitation from lysates of 786-O cells stably expressing HA-VHL (EBC buffer: 50 mM Tris pH 8.0, 120 mM NaCl, 0.5% NP-40), immunoblot for endogenous TFAM; cells with shSCR, shEGLN1 or shEGLN2 included
[4] = target: HA-VHL-L188V (type 2C mutant), stably expressed in 786-O cells (human) (UniProt P40337); test: as above

B1: endogenous TFAM (mitochondrial transcription factor A) of 786-O cells (protein, UniProt Q00059 43-246)
chain: SSVLASCPKKPVSSYLRFSKEQLPIFKAQNPDAKTTELIRRIAQRWRELPDSKKKIYQDAYRAEWQVYKEEISRFKEQLTPSQIMSLEKEIMDKHLKRKAMTKKKELTLLGKPKRPRSAYNVYVAERFQEAKGDSPQEKLKTVKENWKNLSDSEKELYIQHAKEDETRYHNEMKSWEEQMIEVGRKDLLRRTIKKQRKYGAEEC
With B1 the binding [1] was “no binding (condition: EGLN3 downregulated with shRNA)”, the binding [2] was “binds” and the binding [3] was “binds”. For the same binder, the binding [4] was “no binding”.
